Out of some 150,000 compounds screened, about 540 (0.36%) showed an effect of 50% or more. The list shows a part of the results.
System: Plasmodium falciparum
Assay: Primary screen in NF54 nanoGlo assay, in single point, at 2uM, 72h; a lower Z score goes with more inhibition
Assay type: functional, Erythrocyte
Conditions: timepoint 72 hour

| SMILES | % Inhibition | Z score |
| --- | --- | --- |
| COc1cc(OC)cc(C2(O)CCN(C(=O)CCn3nnc4ccccc4c3=O)CC2)c1 | -9% | 1.83 |
| O=S(=O)(c1cc(F)ccc1NCCO)N1CCOC2(CCC2)C1 | -4% | 0.68 |
| CCOCCC1CCN(C(=O)c2cccc(-n3cccn3)n2)CC1 | -15% | 1.43 |
| Fc1cccc(CN2CCCN(c3nc4cc(Cl)ccc4c4nnc(C5CCCCC5)n34)CC2)c1 | -7% | 1.37 |
| COc1ccccc1/C=C/c1c(-c2ccccc2)ncn1Cc1ncc[nH]1 | 10% | -1.17 |
| COc1ccccc1OCc1csc(NC(=O)c2ccco2)n1 | -6% | 0.85 |
| Cc1cccnc1CNC(=O)Nc1cnn(CCN(C)C)c1 | -7% | 1.14 |
| Cc1cccc2c1CN(C(=O)OC(C)(C)C)CCN2C(=O)Cc1ccon1 | -10% | 1.3 |
| O=C(NC1CC1c1ccccc1)c1cc(F)c(O)c(F)c1 (stereo not given) | 18% | -2.14 |
| CCc1ncoc1C(=O)NC1=NN(Cc2ccccc2)[C@@H](C)C1 | -3% | 0.41 |
| Cc1cc(C)c(-c2nc3c(cnn3Cc3ccco3)[nH]2)cc1Cn1cncn1 | -4% | 0.79 |
| CC[C@H](C)NC(=O)Cn1nc(C)cc1C | 11% | -1.7 |
| O=C(NCc1ccccc1)C1CCN(c2ccc(-c3ccccc3)nn2)CC1 | -21% | 2.03 |
| O=C(O)c1cccc(N2CC3(CCC3)C3COCC32)n1 (stereo not given) | -4% | 0.71 |
| CCc1noc(CN2C(=O)c3cc(Cl)c(Cl)cc3C2=O)n1 | 9% | -1.18 |
| Cc1ccc(C(=O)C[n+]2ccc3ccccc3c2C)cc1 | -5% | 0.42 |
| COC[C@@H]1CCC[C@@H]1NC(=O)c1cccc(S(=O)(=O)N2CCC2)c1 | -12% | 1.27 |
| Cc1cccnc1OC1CCCC1N(C)C (stereo not given) | -11% | 1.39 |
| CCCC1CCC(c2ccc(C(=O)Nc3cccc(NC(=O)c4ccc(C5CCC(CCC)CC5)cc4)n3)cc2)CC1 (stereo not given) | -1% | 0.18 |
| COc1ccc2c(c1)CCC[C@@]2(O)CNC(=O)c1ccc(Cl)s1 | -11% | 1.44 |
| CCC(C)(C)C(=O)Nc1ccccc1C(N)=O | -14% | 2.68 |
| CC(C)c1cc(C(=O)N[C@H]2Cc3ccccc3[C@@H]2N)no1 | 1% | -0.14 |

| SMILES | % Inhibition | Z score |
| --- | --- | --- |
| CC(C)c1nc(NC(=O)c2ccc3[nH]cnc3c2)n(C)n1 | 1% | -0.09 |
| Cc1ccc(-c2noc3nc(C4CC4)cc(C(=O)N4CCCCCC4)c23)cc1 | 35% | -3.98 |
| Cc1cc(C)n(CC(=O)Nc2cncnc2-n2cccn2)n1 | -7% | 0.96 |
| Cc1nn(C)c(C)c1-c1cc(C(=O)Nc2ccc(F)cc2F)c2c(C)nn(C)c2n1 | 0% | -0.07 |
| C[C@H]1COCCN1CC(=O)Nc1ccc(Br)cn1 | -6% | 0.53 |
| CCCN(C[C@H]1CCOC1)C(=O)Cc1cccc(Cl)c1 | -13% | 1.62 |
| Cc1cc(C(=O)NC2(CO)CCC2)nn1C(C)C | -7% | 0.87 |
| CCN(CC)S(=O)(=O)NC(=O)C1CC1c1cc(F)ccc1F (stereo not given) | -2% | 0.42 |
| C[C@@H](C(N)=O)N1CCC2(CC1)CN(CCc1ccccc1)C(=O)O2 | -19% | 1.82 |
| CCn1ncc(NS(=O)(=O)c2ccc3ccccc3c2)c1C(=O)N(C)C | 0% | 0.04 |
| CCN1CCn2cc(C(=O)NCc3nc4ccccc4[nH]3)nc2C1=O | -1% | 0.16 |
| c1ccc2c(c1)cnn2C1CCN(CCOC2CCCCO2)C1 (stereo not given) | -14% | 1.71 |
| O=C(NC[C@H]1Cc2ccccc2O1)c1ccoc1 | -10% | 0.94 |
| CC(C)(C)[C@@H](O)CNc1ccc(C#N)cc1F | -15% | 3.02 |
| CCC(C)(C)CNCC1CCOC1c1cnn(C)c1 (stereo not given) | -3% | 0.43 |
| COC(=O)c1nc(NC(=O)[C@H]2CC(=O)OC2(C)C)sc1-c1ccc(F)cc1 | -5% | 0.75 |
| COc1ccc(-c2nc(CN3CCC[C@H](C(N)=O)C3)c(C)o2)c2ccccc12 | -10% | 1.9 |
| COCCOC1CN(C(=O)Nc2ccnc(C)c2)C1 | -8% | 1.29 |
| O=c1[nH]c2cccnc2c(=O)n1CCc1c[nH]c2cc(F)ccc12 | 0% | 0.01 |
| Cc1cccc(C(=O)N(Cc2cc(NC(=O)C3CCC3)ccc2N(C)C)C(C)C)c1 | 9% | -1 |
| CN(Cc1nnc2ccccn12)c1ccncc1Cl | 27% | -3.09 |
| CCc1nsc(N2CCO[C@H](c3ccc(OC(F)F)cc3)C2)n1 | 2% | -0.28 |

| SMILES | % Inhibition | Z score |
| --- | --- | --- |
| Cc1nn(-c2ncccn2)c2c1[C@@H](c1ccccc1OCC(C)C)CC(=O)N2 | 9% | -1.51 |
| CCN1CCN(c2c(CN(C(=O)NC3CCCCC3)C(C)C)c(C)nn2-c2cccc(F)c2)CC1 | -10% | 1.04 |
| Cc1ncccc1CN1CCN([C@@H](C)C(=O)N2CCOCC2)CC1 | 7% | -0.68 |
| Cc1nc(C)c(CNC(=O)[C@@H](c2ccc3c(c2)OCO3)N(C)C)s1 | -14% | 2.68 |
| Cc1cc(C(=O)N2CCN(c3ccc4cn[nH]c4c3)C(=O)C2)c(C)o1 | -1% | 0.09 |
| Cc1ccc([C@@H]2CCCN2CCc2cccnc2)o1 | 7% | -0.85 |
| Cc1noc(C)c1[C@@H](C)CC(=O)Nc1ncccc1Cl | -7% | 1.12 |
| CN1CCN(c2nc3c(cc2C(N)=O)CCC3)C[C@]12CCNC(=O)CC2 | -1% | 0.2 |
| CCCN(c1ccccc1OC)S(=O)(=O)c1cc2c(cc1C)NC(=O)CO2 | -4% | 0.66 |
| O=C(NCCNC(=O)c1cc2cccc(F)c2o1)c1ccc(O)cc1 | -19% | 3.37 |
| O=C(O)CN(C(=O)c1csc(-c2ccc(Cl)s2)n1)C1CCOCC1 | -3% | 0.37 |
| CC(NC(=O)NC1CCCCC1NS(C)(=O)=O)c1nccs1 (stereo not given) | -9% | 1.18 |
| O=C(COC[C@H]1CCCCO1)NCc1ccc2c(c1)CCCC2 | 18% | -2.23 |
| CC(=O)c1ccccc1C(=O)NC[C@H]1CCN(Cc2cccnc2)C1 | -6% | 1 |
| CN(Cc1cncc(F)c1)c1cnn(C)c1 | -19% | 2.42 |
| COCCCNC(=O)C(=O)NCc1ccc(C)cc1 | -9% | 1.47 |
| CCS(=O)(=O)N1CC(=O)N(c2ccc(C)c(Cl)c2)[C@](C)(C(=O)NC2CCCCCCC2)C1 | -2% | 0.22 |
| CC1CCN(Cc2cccn2-c2nnc(N3CCN(Cc4ccccc4)CC3)s2)CC1 | -6% | 0.61 |
| Cc1ccn2c(C(=O)N[C@H]3CC(=O)N(Cc4cccc(F)c4)C3)nnc2n1 | -13% | 1.23 |
| O=C(CCc1c[nH]cn1)N1CC2CCC(C1)O2 | -4% | 0.52 |
| O=C(CCC1CCN(Cc2ccc3nonc3c2)CC1)Nc1ccc2c(c1)OCCO2 | -4% | 0.6 |
| COc1cccc([C@H]2C[C@@H]2C(=O)Nc2cnc(C(N)=O)s2)c1 | -2% | 0.44 |

| SMILES | % Inhibition | Z score |
| --- | --- | --- |
| CC(=O)c1ccc(S(=O)(=O)N2CCN(CC(=O)c3c[nH]c(C(=O)N4CCCC4)c3)CC2)cc1 | -20% | 2.72 |
| CN(C)c1ccnc(CNC(=O)c2ccncc2)n1 | 0% | -0.02 |
| CC(C)C(=O)N1CCC[C@H](NC(=O)c2nccnc2O)C1 | -7% | 0.93 |
| Cc1cc(C)c(S(=O)(=O)N2CCC(C(=O)NCCc3csc(-c4ccccc4)n3)CC2)cc1C | -4% | 0.54 |
| O=C(Cc1noc(-c2cccc3[nH]ncc23)n1)NC1CCCCC1 | -4% | 0.7 |
| Fc1ccc(OC[C@H]2CCOC2)c(-c2nc3ncccn3n2)c1 | 12% | -1.63 |
| CC1(C)CN(c2ccc(S(N)(=O)=O)cc2S(C)(=O)=O)CCO1 | -7% | 0.72 |
| CCOc1ccccc1NC(=O)c1ncccn1 | -5% | 1.01 |
| CCCn1nc(C)c(Cn2cnc3nccnc3c2=O)c1C | 1% | -0.13 |
| O=C1CCc2cc(NC(=O)c3cc(C4CC4)on3)ccc2N1 | -11% | 1.26 |
| CCCN(CCC)C(=O)Cn1c(=O)n(Cc2ccc(C)c(C)c2)c(=O)c2sccc21 | 26% | -2.97 |
| COc1ccccc1-c1nnc(-c2ccc(OC)c(S(=O)(=O)N3CCOCC3)c2)o1 | -7% | 1.13 |
| O=C(c1cc(Cl)sc1Cl)N1CCCS1(=O)=O | -5% | 0.47 |
| CC(C)N1CCNC(=O)[C@@H]1CC(=O)OCc1ccccc1 | -8% | 1.39 |
| Cn1cc(C(=O)c2nc(-c3ccccc3Cl)no2)cn1 | 37% | -5.4 |
| CC(C)(C)C(=O)NCCNc1cncc(-n2cccn2)n1 | -3% | 0.29 |
| Cc1ccc(C(=O)N[C@H]2NN=C(c3sc(C)nc3C)O2)cc1 | 9% | -1.25 |
| O=c1[nH]c2cc3c(cc2c(-c2ccc(F)cc2)c1Cc1ccccc1)OCCO3 | -1% | 0.17 |
| CN(C1CCCC1)S(=O)(=O)N1CCC(Cc2ccn[nH]2)CC1 | -11% | 1.27 |

From ChEMBL document CHEMBL4888484, “Replenishing the malaria drug discovery pipeline: Screening and hit evaluation of the MMV Hit Generation Library 1 (HGL1) against asexual blood stage Plasmodium falciparum ,using a nano luciferase reporter read-out” (2022)
